Reference: paper PMC9374335, “C11orf94/Frey is a key regulator for male fertility by controlling Izumo1 complex assembly” (Science Advances, 2022)
No constants are given. Whether binding was seen depends on the method and setting. Binding seen in cells or lysates may run through a third protein. Some binding calls cover weakened binding; strength is not graded here. Sequences can lack the tags named with a protein.

Legend:
Assay in all cases: co-IP; CHAPSO lysates of transfected HEK293T cells; 3xFLAG-tagged bait precipitated with anti-FLAG beads; with or without coexpressed C11orf94-3xmyc; Western blot
Izumo1-3xFLAG = biological target: T1, Izumo1-3xFLAG (mouse, UniProt Q9D9J7 22-397)
T1 construct: Izumo sperm-egg fusion protein 1, mouse; open reading frame amplified from murine testis cDNA; source: HEK293T, transfected, in lysate (CHAPSO); not shown: 3xFLAG, C-terminal, kept
T1 sequence (looked up): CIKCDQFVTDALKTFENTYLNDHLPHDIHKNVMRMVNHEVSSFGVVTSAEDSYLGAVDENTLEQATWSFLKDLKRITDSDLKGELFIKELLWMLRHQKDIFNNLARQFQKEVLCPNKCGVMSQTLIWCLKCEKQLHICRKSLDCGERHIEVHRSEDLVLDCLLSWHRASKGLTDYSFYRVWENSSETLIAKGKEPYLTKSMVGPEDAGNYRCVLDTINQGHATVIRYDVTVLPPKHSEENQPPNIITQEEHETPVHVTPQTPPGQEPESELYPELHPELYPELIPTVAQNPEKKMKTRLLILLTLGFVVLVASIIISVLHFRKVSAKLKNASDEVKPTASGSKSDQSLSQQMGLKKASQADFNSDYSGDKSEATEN

[1] = biological target: T2, murine C11orf94 equipped with a C-terminal triple-FLAG tag (mouse) (UniProt Q8CF31)
T2 sequence: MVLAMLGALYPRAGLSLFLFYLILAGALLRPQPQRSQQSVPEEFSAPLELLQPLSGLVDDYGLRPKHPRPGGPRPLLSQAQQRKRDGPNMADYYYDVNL

SPPL2c-3xFLAG (mouse) = biological target: T3, SPPL2c-3xFLAG (mouse) (UniProt A2A6C4)
T3 sequence: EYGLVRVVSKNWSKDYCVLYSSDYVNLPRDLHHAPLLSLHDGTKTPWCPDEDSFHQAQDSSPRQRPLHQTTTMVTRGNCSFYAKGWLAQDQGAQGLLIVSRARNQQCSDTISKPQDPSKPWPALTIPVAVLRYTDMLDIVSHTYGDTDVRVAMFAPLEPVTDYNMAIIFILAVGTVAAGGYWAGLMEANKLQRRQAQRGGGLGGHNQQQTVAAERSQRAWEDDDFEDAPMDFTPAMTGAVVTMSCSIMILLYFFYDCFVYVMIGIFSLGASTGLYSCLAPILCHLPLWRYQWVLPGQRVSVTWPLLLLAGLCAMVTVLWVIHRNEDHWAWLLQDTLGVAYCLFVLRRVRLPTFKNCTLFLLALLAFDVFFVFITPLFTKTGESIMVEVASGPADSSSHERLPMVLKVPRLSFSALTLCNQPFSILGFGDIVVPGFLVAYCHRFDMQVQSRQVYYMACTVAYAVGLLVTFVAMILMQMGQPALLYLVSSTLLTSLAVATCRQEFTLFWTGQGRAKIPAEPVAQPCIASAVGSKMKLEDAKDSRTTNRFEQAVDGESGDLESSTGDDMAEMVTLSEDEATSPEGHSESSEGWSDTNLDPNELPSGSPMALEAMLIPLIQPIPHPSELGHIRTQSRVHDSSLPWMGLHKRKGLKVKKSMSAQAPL

B1: murine ACE3 equipped with a C-terminal HA-tag (natural protein, mouse, UniProt D0G895 24-737, looked up)
chain: VGETSLNDFYSEAQAKLFLQFYEQTAQVVLNEFMEATWNYVTNITKQNQKNMLQKEADRSQFMLYFSTRARMFRTDHFLNQDVKRMLRKLQNIDKSALPTEDLLEYNRLLTYMETAYNRAEVCLDEGPCLTLEPDLQEIMATSRDQKELLWAWQGWRDAVGRQLRPVFEDYVRLSNKAAQYNGYKDMGALWRSKYESDTLEEDLEQLYKELQPLYLNLHAYVRRSLYRYYGPELIDLRGPIPAHLLGNMWAQSWNNILDLVLPYPTKAPEDITAIMKIQHWRPEKMFEEANLFFTSMGMLPAPPAFWIKSMMEKPADGREVECHTSSWNFYKFNDFRVKKCTEVTLEDLLSVFHQMGHIQYFLQYQNLSVIYQEGASPAFEEAVGSVIALSVSSHKYLLARGLLSQPHQDSEEEVNFLLGIALEKIAFIPFSYLVDKFRWKIFDGTISKITYNQEWWNFRLKYQGLCPPVPRSDDDFDPGAKFHIPANVPYIRYFLGLILQFQLHEALCEASGHVGPLHQCDNYNSKVAGKILGDLLKLGSSRPWREVLQEVTGESNISTKAFLTYFKPLMDWLVTENVKQGDTLGWPDFSCSFEEKITSKVSFLGTDTEPEQAYLGQWVLLSMSFFMLVLILALGFRLHYLEKQLLDEDTMILKTLPYSYFLGIAMEPHQAARKQWLLLGLCCILMLCCIGLLIRIVTQNTENTPWMKNEGQS
notes: Angiotensin-converting enzyme 3 (ACE3), mouse; open reading frame amplified from murine testis cDNA; also called ACE3-HA; angiotensin-converting enzyme 3; source: HEK293T, transiently transfected, in lysate (CHAPSO); not shown: HA, C-terminal, kept
B1 was tested. Which binding (Izumo1-3xFLAG) did it give?
The binding was “binds”.

And the binding [1]?
The binding was “no binding”.

What about the binding (SPPL2c-3xFLAG (mouse)) of the same binder?
The binding was “binds”.
